Laboratory results published in PubChem BioAssay AID504339 (National Center for Advancing Translational Sciences (NCATS), 2011).
The whole screen tested about 390,000 compounds, of which about 17,000 (4.4%) were called active. Inconclusive results, whose numbers are uncertain, are shown with a selection of clear calls. The call rests on the fitted dose curve; in most records, active means well fitted inhibition curve with a large enough effect; inconclusive means small, poorly fitted or top-dose-only effect; inactive means no such curve, though single readings can be large or run the other way. A potency beside an inconclusive call is a rough fit, not a confirmed value.

What follows are compounds tested against Lysine-specific demethylase 4A (Homo sapiens) (UniProt O75164) (assay: qHTS Assay for Inhibitors of JMJD2A-Tudor Domain). Details: AlphaScreen JMJD2A-Tudor / H3K4me3 peptide binding; series mostly up to 114 µM.
Further: nearly all actives have a fitted effect of over 50% in size.
Potency means the concentration at half of the fitted maximal effect; tags describe the fitted curve by direction and shape.

UniProt O75164, sequence (O75164 whole entry, looked up, the tested form may be a part): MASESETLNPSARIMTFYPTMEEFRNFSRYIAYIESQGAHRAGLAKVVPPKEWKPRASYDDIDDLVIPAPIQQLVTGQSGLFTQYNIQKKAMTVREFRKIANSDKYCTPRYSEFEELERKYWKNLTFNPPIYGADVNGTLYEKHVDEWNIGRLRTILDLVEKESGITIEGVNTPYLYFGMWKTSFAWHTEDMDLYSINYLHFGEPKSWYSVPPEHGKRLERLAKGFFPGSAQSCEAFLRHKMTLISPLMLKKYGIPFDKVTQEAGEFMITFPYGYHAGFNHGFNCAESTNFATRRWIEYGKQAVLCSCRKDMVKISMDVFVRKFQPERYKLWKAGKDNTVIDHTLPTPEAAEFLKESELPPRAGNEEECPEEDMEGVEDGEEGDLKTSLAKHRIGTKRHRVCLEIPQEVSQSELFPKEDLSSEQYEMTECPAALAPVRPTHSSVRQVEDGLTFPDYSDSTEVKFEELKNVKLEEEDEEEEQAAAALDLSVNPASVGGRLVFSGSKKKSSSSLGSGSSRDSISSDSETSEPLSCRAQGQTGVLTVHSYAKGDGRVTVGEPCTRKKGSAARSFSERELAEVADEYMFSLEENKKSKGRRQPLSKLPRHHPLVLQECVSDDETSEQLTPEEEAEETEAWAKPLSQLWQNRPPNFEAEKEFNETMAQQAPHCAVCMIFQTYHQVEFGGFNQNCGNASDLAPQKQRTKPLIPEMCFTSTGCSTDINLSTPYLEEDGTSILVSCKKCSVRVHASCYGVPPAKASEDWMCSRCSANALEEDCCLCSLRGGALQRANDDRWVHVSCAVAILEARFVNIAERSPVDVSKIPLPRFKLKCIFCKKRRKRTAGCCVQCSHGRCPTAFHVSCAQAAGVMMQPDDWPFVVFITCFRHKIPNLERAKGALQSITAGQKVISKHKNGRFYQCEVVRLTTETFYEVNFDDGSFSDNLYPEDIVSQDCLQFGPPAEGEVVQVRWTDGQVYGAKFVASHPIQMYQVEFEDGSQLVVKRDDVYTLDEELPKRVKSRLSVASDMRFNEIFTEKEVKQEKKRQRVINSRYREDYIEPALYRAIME

SMILES | Potency
COc1ccc(NS(=O)(=O)c2ccc3[nH]c4c(c3c2)CCCC4)cc1OC | active: 44.7 µM
CC(C)[C@H](CO)N(Cc1cccc(F)c1)c1nc(Nc2cccc(Cl)c2)c2ncn(C(C)C)c2n1 | inconclusive: 31.6 µM [inhibitor, full curve]
CC1=C[C@@H](C)[C@@H](c2ccccc2)OC1=O | inactive
CCn1ccc2c(OCC(=O)Nc3ccccc3C(F)(F)F)cccc2c1=O | inactive
O=C(CSc1cccc2cccnc12)N1CCCC1 | inconclusive: 3.16 µM [inhibitor, single point]
Cc1ccc2nc(CCc3nc4ccc(C)cc4o3)oc2c1 | inconclusive: 22.4 µM [inhibitor, single point]
Cn1c(=O)c2c(nc(Sc3nc4ccccc4n3CC(=O)N3CCCCC3)n2C)n(C)c1=O | inconclusive: 25.1 µM [inhibitor, single point]
Cc1ccc(OCCn2c(=S)[nH]c3c(N)ncnc32)cc1 | active: 5.01 µM
Cc1ccccc1NCCC(=O)Nc1ccc(Cl)cc1 | inconclusive: 56.2 µM [inhibitor, partial curve]
Oc1ccc(/C=N/n2cc(-c3ccccc3)[nH]c2=S)cc1 | active: 3.98 µM
COc1ccc(C2Nc3ccccc3C(=O)N2O)cc1OC (stereo not drawn) | inconclusive: 39.8 µM [inhibitor, single point]
CC(=O)Nc1ccc2c(COC(=O)CC3Sc4ccccc4NC3=O)cc(=O)oc2c1 (stereo not drawn) | active: 79.4 µM
CN1CCN(CCCNC(=O)c2ccc(/C=C3\Sc4ccccc4N(Cc4ccc(F)cc4)C3=O)cc2)CC1 | inconclusive: 56.2 µM [inhibitor, partial curve]
Oc1ccc(-c2csc(Nc3ccccn3)n2)cc1O | active: 56.2 µM
Cc1cc(OCCCn2ccnc2)cc(C)c1Cl | inconclusive: 50.1 µM [inhibitor, partial curve]
NS(=O)(=O)c1ccc(CNC(=O)Cn2nc(C(F)F)cc2C(F)F)cc1 | inactive
N#C/C(=C/c1ccc2c(c1)OCO2)C(=O)NCCc1c[nH]c2ccccc12 | inconclusive: 28.2 µM [inhibitor, full curve]
Cc1ccc(Cl)cc1N1CCN(CCCNC(=O)c2ccc3nc(N4CCCCC4)sc3c2)CC1 | inconclusive: 44.7 µM [inhibitor, partial curve]
O=C(CCCc1ccccc1)Nc1ccc(Br)cc1F | inconclusive: 11.2 µM [inhibitor, full curve]
N/C(CC1CC1(Cl)Cl)=N\OC(=O)c1ccccc1 (stereo not drawn) | inactive
COc1cccc(CNc2cc(C)nc3nc(-c4ccc(C)cc4)nn23)c1 | inactive
CCCCC(=O)NCCNc1nc2c(c(=O)n(C)c(=O)n2C)n1Cc1ccccc1 | inconclusive: 89.1 µM [inhibitor, single point]
COc1ccccc1/C=C1/SC(=S)N(CCC(=O)Nc2cccnc2)C1=O | inconclusive: 8.91 µM [inhibitor, partial curve]
O=[N+]([O-])c1cc(N=Nc2ccc3ccccc3c2)ccc1O | inconclusive: 11.2 µM [inhibitor, full curve]
O=C(NCC(c1ccco1)S(=O)(=O)c1cccs1)c1ccccc1F (stereo not drawn) | inactive

SMILES | Potency
COC(=O)C1=C(C(=O)OC)[N+]2=C3N(C(=O)NC2(C)C)[C@H](CO)C[C@@]32c3ccccc3N(Cc3ccccc3)[C@@H]12 | inconclusive: 14.1 µM [inhibitor, full curve, poor fit]
O=C(NCCOc1ccccc1)c1ccc2c(c1)S(=O)(=O)c1cc(Cl)ccc1C2=O | inconclusive: 12.6 µM [inhibitor, partial curve]
Cc1ccc(NS(=O)(=O)c2cc3c(cc2N2CCCCC2)NC(=O)CC3)cc1C | inconclusive: 56.2 µM [inhibitor, partial curve]
CC(C)[C@H](NS(=O)(=O)c1ccc2c(c1)OCCO2)C(=O)OCC(=O)Nc1cc(Cl)ccc1Cl | inconclusive: 28.2 µM [inhibitor, single point]
O=C(NC1CCN(S(=O)(=O)c2cccc(Cl)c2)CC1)C1CCCCC1 | inactive
COc1ccc(Cn2c(C(=O)O)c(CNCCc3cc(OC)ccc3OC)c3ccc(C)cc32)cc1 | inconclusive: 50.1 µM [inhibitor, partial curve]
COc1cccc(/C=N/Nc2ccc(S(=O)(=O)Nc3ccccc3C(=O)O)cc2[N+](=O)[O-])c1O | active: 44.7 µM
Cc1c(Cl)cccc1NS(=O)(=O)c1ccc2c(c1)C1C=CCC1C(c1ccc(C(=O)O)cc1)N2 (stereo not drawn) | active: 56.2 µM
COc1ccc([C@H]2[C@H](C(=O)OC(C)(C)C)N3N=Cc4ccccc4C3C23C(=O)c2ccccc2C3=O)cc1OC (stereo partly drawn) | inconclusive: 39.8 µM [inhibitor, partial curve]
Nc1c(N2CCCC2)cc(Cl)c2nonc12 | inconclusive: 56.2 µM [inhibitor, partial curve]
CCC(=O)Nc1cc(-c2nn(C)c(=O)c3ccccc23)ccc1N1CCOCC1 | inactive
Cc1c(C#N)c(N=CN(C)C)c(C(=O)c2ccc(Br)cc2)n1-c1ccc(Cl)cc1 | inconclusive: 44.7 µM [inhibitor, partial curve]
CCN1CCN(Cc2ccc(NC(=O)c3cc(NC(=O)c4cnnc5ccccc45)cc(OC)c3)cc2C(F)(F)F)CC1 | inconclusive: 56.2 µM [inhibitor, partial curve]
CCCCn1c(N)c(N(CC(C)C)C(=O)C2CC(=O)N(Cc3ccccc3)C2)c(=O)[nH]c1=O (stereo not drawn) | inactive
O=C(O)c1cc(N2CCCCC2)ccn1 | active: 1.58 µM
CCN(CC)C(=O)CSc1nc(N)c(C(=O)Nc2ccc(OC)cc2)s1 | inactive
O=C(c1cccn1-c1nnc(N2CCCC2)s1)N1CCN(c2ccc(Cl)cc2)CC1 | inactive
O=C(NCc1ccccn1)[C@]1(C(F)(F)F)C[C@H](CCc2ccccc2)CCCO1 | active: 39.8 µM
c1ccc2c(c1)nc(N1CCCCCC1)c1ccccc12 | active: 17.8 µM
CCCCCC(=O)N(O)C1CC(=O)N(c2ccccc2)C1=O (stereo not drawn) | active: 22.4 µM
Cn1c(Cc2nc3ccccc3n2C)nc2ccccc21 | inconclusive: 11.2 µM [inhibitor, full curve, poor fit]
CCN1CCN(C(=O)Cn2nc(-c3ccc(Cl)cc3)ccc2=O)CC1 | inactive
COc1ccccc1/C=C/C=N\N1CCN(Cc2ccccc2Cl)CC1 | active: 20 µM
O=C(COC(=O)c1ccc[nH]c1=O)c1ccc(Cl)s1 | inconclusive: 100 µM [inhibitor, partial curve, poor fit]
O=S(=O)(Cc1ccccc1)C(CCCc1ccccc1)S(=O)(=O)Cc1ccccc1 | inactive

SMILES | Potency
COC(=O)c1n[nH]n(-c2ccccc2)c1=O | inactive
C=CCCC(=O)Nc1nc(C)c(-c2csc(Nc3ccc(Cl)cc3Cl)n2)s1 | inconclusive: 44.7 µM [inhibitor, partial curve]
CC1=C(C)CC2C(=O)N(c3cccc4ccccc34)C(=O)C2C1 (stereo not drawn) | active: 56.2 µM
Cc1ccn2c(Nc3ccc4c(c3)OCCO4)c(-c3ccc(Cl)s3)nc2c1 | inconclusive: 14.1 µM [inhibitor, partial curve]
Nc1nc(NCc2ccco2)nc(N2CCCCC2)c1[N+](=O)[O-] | inconclusive: 50.1 µM [inhibitor, partial curve]
CN(C)c1cccc(C(=O)NNC(=O)/C=C/c2cccs2)c1 | inconclusive: 28.2 µM [inhibitor, full curve, poor fit]
CCn1c(/C=C/Nc2ccccc2)[n+](CC)c2ccc(Cl)cc21 | inactive
Cc1cc(=O)[nH]c2c1c(C)nn2-c1ccccc1 | inactive
O=C(O)C(Cc1ccnc2ccccc12)=NO | active: 3.16 µM
CCNC(=O)c1cnc2sc(N3CCCCCC3)nn2c1=O | inactive
Nc1ccc(C(=O)N2CCCC2)cc1 | inactive
Cc1ccc(OCCn2cc(C(=S)N3CCCC3)c3ccccc32)cc1C | inconclusive: 3.55 µM [inhibitor, single point]
CNC(=O)COc1coc(CN2CCN(Cc3ccccc3)CC2)cc1=O | inactive
O=C(CCCn1c(=S)[nH]c2cc3c(cc2c1=O)OCO3)N1CCN(c2ncccn2)CC1 | inconclusive: 44.7 µM [inhibitor, partial curve]
COc1ccc(OC)c(N/C(C)=C/C(=O)c2ccc(C)o2)c1 | inconclusive: 17.8 µM [inhibitor, full curve]
COc1ccccc1/C=C/C=N/n1c(-c2cc(-c3ccccc3)n[nH]2)n[nH]c1=S | inconclusive: 20 µM [inhibitor, full curve, poor fit]
COc1ccc(NC(=O)/C(C#N)=C/C=C/c2ccco2)cc1 | inconclusive: 56.2 µM [inhibitor, partial curve]
CC1CCN(c2ccccc2NC(=S)NC(=O)c2cccs2)CC1 | inconclusive: 56.2 µM [inhibitor, partial curve]
CCC(C)NC(=O)CCn1c(=O)c2cccn2c2ccc(F)cc21 (stereo not drawn) | inactive
Cc1cc(C)cc(-n2c(C)cc(/C=N/NC(=O)c3ccncc3)c2C)c1 | inconclusive: 56.2 µM [inhibitor, partial curve]
O=C1/C(=C/c2ccc3c(c2)OCO3)CCC/C1=C\c1ccc2c(c1)OCO2 | inconclusive: 7.94 µM [inhibitor, full curve]
O=C1/C(=C\c2ccco2)CCC/C1=C\c1ccco1 | active: 44.7 µM
COc1ccc(OC)c(CN2CCCC(C(=O)c3ccccc3SC)C2)c1 (stereo not drawn) | inconclusive: 39.8 µM [inhibitor, partial curve]
